Assay results as given in the supplement of paper PMC3334620.
In all, about 33,000 sequences were measured (“E-score (-0.5 to 0.5)”: median about -0.017, highest 2% from about 0.3 on). The list shows a part of the results.

Each sequence was assayed against T1, Sut1 (UniProt P53032) (assay: PBM E-score (8-mer binding enrichment) (E-score (-0.5 to 0.5)); higher = stronger / more preferred TF binding; most listed sequences are background and not binding sites). Conditions: protein concentration: 200 nM; construct: GST-full length.
T1 sequence: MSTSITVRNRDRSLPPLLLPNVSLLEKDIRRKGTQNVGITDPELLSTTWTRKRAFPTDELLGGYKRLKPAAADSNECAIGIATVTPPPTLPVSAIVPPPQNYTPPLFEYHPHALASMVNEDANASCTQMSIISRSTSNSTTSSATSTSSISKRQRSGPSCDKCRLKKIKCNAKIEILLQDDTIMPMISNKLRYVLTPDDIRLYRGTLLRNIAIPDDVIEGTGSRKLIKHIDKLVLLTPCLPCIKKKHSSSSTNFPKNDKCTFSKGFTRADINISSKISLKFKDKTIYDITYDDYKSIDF
Outline: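 For each ungapped eight-base word taken together with its reverse complement, the Universal PBM Analysis Suite assigned an E-score. Binding data came from GST-tagged yeast transcription factors, applied at about 100-200 nM, on universal all-10-mer Agilent arrays made double-stranded by primer extension. Fluorescent anti-GST marked bound protein, and scans were normalised with masliner.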

Sequence | PBM E-score
AGACTTGG | -0.181
ACACGACC | -0.159
GTAGTGCA | 0.0589
ATAGTTCC | 0.145
AACTAACT | 0.175
CCGGCCTC | -0.0332
CATCTCGA | -0.0582
GCCGGTAA | 0.121
TCAAAAGA | 0.0683
CAAATTCG | 0.0687
GCAGAACC | -0.274
ACCTGCGA | -0.131
TAGCTCGA | 0.00227
AATTTGTA | 0.138
CCTTCTGC | -0.233
AGGAAACA | 0.0247
ACCAACGC | 0.014
AGGATAAA | 0.143
AATTCGCG | -0.00818
ATTGTTAG | 0.187
GTATTCTA | 0.101
CTGATGGC | -0.0413
AATCAGCA | 0.115
ACAACATA | 0.1
GACGACCA | -0.0786

Sequence | PBM E-score
CCTGCCCC | -0.331
CCACTTAG | -0.148
AACGCTCA | 0.0257
CTATTATC | 0.143
CTCTAAGA | -0.0515
GACTCAAA | 0.0112
CAATCTGC | -0.0526
GATGAGTA | 0.146
CAGCGTCC | -0.0497
CAAACACC | 0.109
ATTCCGGC | 0.177
GTAGGGAA | -0.0957
GTGGCTGA | -0.17
ACAGCTTC | -0.101
GTCTTACA | -0.0467
GAATCTTA | 0.0473
ATAAGTGC | -0.181
CAAAACCA | 0.178
GTCTCAAA | -0.0778
AAAACCTG | -0.155
GATTCACA | -0.0333
CGTCCTGA | -0.191
CCCTCGTC | -0.094
CTCAAAAC | 0.0575
CAGTTTAG | -0.0701

Sequence | PBM E-score
CGGGATGA | -0.0807
CAAACCTC | -0.129
AGAGTCGG | -8e-05
TCTACGCA | 0.092
GAACTCGA | -0.135
AGAAAAGA | 0.028
CACCAATG | -0.0733
AACTTGCC | 0.0708
AACCCGTG | -0.278
CGAAGTTC | 0.111
GGATGTGA | 0.0595
GCAACCGA | -0.147
AAAAATCT | 0.223
TCTAAGCA | -0.0537
AATAGTGG | 0.041
GGAATTCC | 0.0432
GAACCCGC | -0.136
AACGAGGA | -0.0346
CGGTCGGC | -0.24
AGAGTTAA | 0.0656
ATAACCAA | 0.154
CAAAATCC | 0.247
AAGTCACG | 0.0795
ATAATCCC | -0.0485
AGCCACAA | 0.0235

Sequence | PBM E-score
AATGCACG | -0.0383
AGTTTAGC | 0.0646
CAGTTTAC | -0.046
GACCTCGC | -0.142
CCGATGGA | 0.0248
GAAGACAC | 0.0244
CGTTTAAA | 0.216
ATGCGTTA | 0.0573
AATAGCAA | 0.219
ATACGGAG | 0.362
ATTTCGAG | 0.164
CGTAGTAG | 0.0489
GCTTCTTA | 0.0688
CGTAGCGC | -0.0721
GAATCGCA | -0.0351
ACCGATAC | 0.0287
ACAAGACA | 0.0347
AGGGGCAG | -0.316
ATTGGTAG | 0.146
ATCCCGAC | 0.116
AAAAGCAA | 0.242
GGTAAGTA | 0.00185
GCCGTAGA | 0.0155
CCTGACTA | -0.0993
TGAAGCAA | 0.0425

Sequence | PBM E-score
ATAATCTC | 0.176
AGAATTAG | 0.0738
GTTTGTCA | -0.0164
ATGCCTAC | -0.175
ATCGTTAG | 0.123
AATCGAGA | 0.0762
CATTTACG | 0.0784
CCGCGCTC | -0.0311
AACCTGCT | -0.138
GGTCTTTA | 0.0877
ATGCGAAC | -0.0189
AAAAGCGG | 0.126
CCGCGAAG | 0.0722
AATTGTAG | 0.165
CGACGCCA | -0.213
AGTGTCCA | -0.0347
AAGACAGG | -0.0235
ACCTCGAT | -0.0769
CTTTATGA | -0.00416
GAGAGTCC | 0.136
ATCACGAA | -0.032
TCACTAAA | 0.108
CGACTAAA | -0.0254
AGCACAGG | -0.184
AAATAAAG | 0.224

Sequence | PBM E-score
AGATCACG | 0.177
GACAGTTA | 0.179
AGAACTGC | -0.117
TCCGCGAA | 0.242
CAGGTCCG | 0.438
ACCTAGAC | 0.0284
CCGGTCCA | 0.0265
AGCTTAGG | -0.079
CCAGGTGC | -0.0526
AGGTCCCA | -0.273
AGTAGGTC | -0.0245
CGGGGGAA | 0.0154
AGTAGGAA | -0.0881
CTCACCTA | 0.0474
CACGTTTA | -0.0463
TACTCCTA | -0.00727
GTGAACCA | 0.00963
GGTGTGCA | -0.258
CTAGTTCC | 0.0817
CTCCAAAC | -0.0157
GTCATAGA | -0.0539
CCGTGAAG | -0.0181
ACGTACAT | 0.0232
ATTGGTGG | 0.155
CATCGGTA | 0.0942

Sequence | PBM E-score
CTTAATCC | 0.00038
GGGGTGAA | -0.0208
GCAGTCCC | -0.382
CTTTCTGC | 0.0524
GTTCTTAA | 0.18
GGTGCACC | -0.115
CAGAATCA | -0.078
AACTATAG | 0.0275
CTCGACCA | -0.0983
AGGACCCA | -0.218
GGCTACGA | -0.107
ACGCAGTC | -0.133
AATTGGAC | 0.181
CCATGCGC | -0.138
AATGTACA | 0.23
CCTAGTAA | 0.0151
CATCATCC | -0.21
CTTTCAAA | 0.302
CCGTCTAC | -0.0429
ATTGCTCG | 0.146
CCGAGGCA | -0.128
CACGCCTC | -0.177
GCCGAATA | 0.165
GCACTTAA | 0.132
AAACGGAT | 0.209

Sequence | PBM E-score
ACCTGACT | 0.0196
GCAGACTA | -0.2
CCGAAAGC | 0.0236
TAACGTGA | -0.0781
GGGATGGA | -0.0689
CATGTTCG | -0.0291
CCGTTTCC | 0.0391
CGTCCCTC | -0.235
AAGTGGCT | -0.159
TCAGAGGA | -0.00509
CGCTGCAG | -0.182
CAAGGCCG | -0.15
AAGTAGTC | 0.0711
GATGTTAC | 0.0376
GGCATAGA | -0.194
AGCCACTC | -0.137
CGAAAAAA | 0.277
ACGCTGCG | -0.126
CTTACCTC | -0.0153
ATCCCAGC | -0.107
AGTCAAGA | -0.155
AAGGTGAA | -0.0918
GTAGAAAC | 0.068
AACCGTAG | -0.191
AAAATTTT | 0.236

Sequence | PBM E-score
ATTTGCTA | 0.206
GGACTTAA | 0.326
AAAGTTCG | 0.069
CGAACCAA | 0.18
CCCGCGAG | 0.145
AAAATCAC | 0.208
CAGTTCCA | 0.0534
CACACTGC | -0.0537
AGTCCTAT | 0.0983
TCCCAACA | -0.137
CGCTCAAG | 0.00438
CCTCAACA | 0.0434
ACCCAGTC | -0.0505
CGAAGCAA | -0.00172
CTTAAAGC | -0.0652
CCACTGGA | -0.208
ATCCTGAG | -0.115
ATGTGCCA | -0.19
AATTACAG | 0.231
